Laboratory results taken from patent publication US9603820B2, “Ornithine aminotransferase inhibition with GABA analogues for treatment of hepatocellular carcinoma” (Northwestern University, priority 2014, dated 2017).
Read-outs that look alike come from different tables or passages of the source.

Experiments:
hERG potassium channel = hERG potassium channel (Homo sapiens, UniProt Q12809)
[1] = Metabolic stability in cryopreserved human hepatocytes; type: in vitro ADME; conditions: for loss of CPP-115 during incubation: 5 μM
Procedure: The metabolic stability of CPP-115 was evaluated in cryopreserved human hepatocytes using a LC/MS/MS method. Cryopreserved human hepatocytes were prepared from a pool of 3 individuals (1,000,000 cells/mL) and incubated in triplicate with CPP-115 (5 μM) for 0, 10, 60, 120, and 240 minutes.

[2] = dog, in vivo, po
[3] = Dose range finding (Part B), i.p. once daily up to 14 days
[4] = target: T1, ornithine aminotransferase (OAT) (Homo sapiens, UniProt P04181); assay: Time-dependent inactivation of OAT and dialysis of the inactivated enzyme; type: biochemical
T1 sequence (P04181 36-439 limits assumed): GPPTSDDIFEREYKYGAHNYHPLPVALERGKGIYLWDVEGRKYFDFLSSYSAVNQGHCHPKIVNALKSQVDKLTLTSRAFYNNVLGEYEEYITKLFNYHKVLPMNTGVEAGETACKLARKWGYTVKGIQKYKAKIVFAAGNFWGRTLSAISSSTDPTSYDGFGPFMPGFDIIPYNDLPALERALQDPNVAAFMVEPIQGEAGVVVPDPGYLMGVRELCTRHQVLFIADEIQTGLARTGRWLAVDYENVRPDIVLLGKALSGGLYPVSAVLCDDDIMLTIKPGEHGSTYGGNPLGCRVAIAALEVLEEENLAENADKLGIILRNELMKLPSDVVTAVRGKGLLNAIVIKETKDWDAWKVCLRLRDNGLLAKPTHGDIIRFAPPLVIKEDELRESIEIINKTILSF
Procedure: OAT activity assays were carried out using as follows.
OAT incubated without the inactivator serves as a control. After 24 h, the enzyme solutions are transferred to a D-Tube™ Mini dialyzer and exhaustively dialyzed against the buffer (100 mM pyrophosphate buffer containing 0.1 mM alpha-ketoglutarate and 0.1 mM PLP, pH 8.0) at 4° C. protected from light. The dialysis buffer is exchanged three times every 4 h and left overnight. After 48 h of dialysis, the remaining OAT activity in each of the solutions is assayed.
For the determination of KI and kinact values, the natural logarithm of the percentage of remaining OAT activity is plotted against the pre-incubation time at each inhibitor concentration to obtain the kobs (slope) value for each concentration. The kobs is the rate constant describing the inactivation at each inhibitor concentration. kobs is re-plotted against the inhibitor concentration using nonlinear regression analysis (Graph-Pad Prism 6; GraphPad Software Inc.). kinact and the KI were estimated from the equation below: […], where kinact is the maximal rate of inactivation, KI is the inhibitor concentration required for half-maximal inactivation, and [I] is the pre-incubation concentration of inhibitor. […] The initial rate constants for the inactivation at various concentrations of the two compounds are determined using nonlinear regression analysis.

[5] = Acute toxicity, maximum tolerated dose (Part A), single i.p. injection; type: in vivo, Wistar Albino rats
Procedure: A maximum tolerated dose (Part A) and dose range finding (Part B) study of CPP-115 was conducted in Wistar Albino rats. In Part A of the study, 17 male and 18 female rats, placed in 8 treatment groups, received a single i.p. injection of CPP-115 at a dose of 0.5, 5, 30, 50, 75, 100, 150, or 300 mg/kg.

glutamate decarboxylase = assay: Inhibition of glutamate decarboxylase; type: biochemical; conditions: even at 6 mM concentration
[6] = target: T1, ornithine aminotransferase (OAT); assay: Continuous coupled OAT assay (PYCR1/NADH), inhibition of OAT; type: biochemical; conditions: FIG. 2
Description: With these two assays in hand, the activity of a variety of compounds made previously as potential inhibitors of GABA-AT were investigated.

GABAB = GABAB (Homo sapiens, UniProt Q9UBS5); assay: Binding to GABAB
hGAT-2 = target: T2, hGAT-2 (Homo sapiens, UniProt Q9NSD5); assay: [3H]GABA uptake in transfected tsA201 cells; type: cell-based; conditions: hGAT-2, 37° C., 3 minutes
T2 construct: expressed in transfected cells; host or cells: tsA201 cells
T2 sequence (Q9NSD5 1-602): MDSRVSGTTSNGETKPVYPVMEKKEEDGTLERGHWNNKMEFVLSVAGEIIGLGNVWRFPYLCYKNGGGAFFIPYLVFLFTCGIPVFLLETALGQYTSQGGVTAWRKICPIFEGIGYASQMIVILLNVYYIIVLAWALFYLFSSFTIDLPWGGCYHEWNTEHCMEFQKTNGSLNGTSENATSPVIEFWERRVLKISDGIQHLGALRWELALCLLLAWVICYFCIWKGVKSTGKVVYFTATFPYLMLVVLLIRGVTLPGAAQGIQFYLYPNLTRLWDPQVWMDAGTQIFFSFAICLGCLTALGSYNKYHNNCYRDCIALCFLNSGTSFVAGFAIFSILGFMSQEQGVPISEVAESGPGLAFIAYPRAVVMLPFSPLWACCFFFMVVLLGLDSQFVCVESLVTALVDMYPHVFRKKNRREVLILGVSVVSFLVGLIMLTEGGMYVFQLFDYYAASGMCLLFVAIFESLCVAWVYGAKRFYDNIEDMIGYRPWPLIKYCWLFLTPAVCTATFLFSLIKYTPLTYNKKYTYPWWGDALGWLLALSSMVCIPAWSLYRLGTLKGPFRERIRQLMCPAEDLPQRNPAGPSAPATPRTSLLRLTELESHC
Procedure: (§1) Plasmids encoding hGAT-1, hBGT-1, hGAT-2, and hGAT-3 were transfected into tsA201 cells. The next day tsA201 cells transiently expressing each of the 4 GABA transporter subtypes were plated followed by (36 to 48 hours later) addition of [3H]GABA (30 nM) and CPP-115 (1 mM). Uptake of [3H]GABA was determined after incubation at 37° C. for 3 minutes.

hBGT-1 = target: T3, hBGT-1 (Homo sapiens, UniProt P48065); assay: [3H]GABA uptake in transfected tsA201 cells; type: cell-based; conditions: hBGT-1, 37° C., 3 minutes
T3 construct: expressed in transfected cells; host or cells: tsA201 cells
T3 sequence (P48065 1-614): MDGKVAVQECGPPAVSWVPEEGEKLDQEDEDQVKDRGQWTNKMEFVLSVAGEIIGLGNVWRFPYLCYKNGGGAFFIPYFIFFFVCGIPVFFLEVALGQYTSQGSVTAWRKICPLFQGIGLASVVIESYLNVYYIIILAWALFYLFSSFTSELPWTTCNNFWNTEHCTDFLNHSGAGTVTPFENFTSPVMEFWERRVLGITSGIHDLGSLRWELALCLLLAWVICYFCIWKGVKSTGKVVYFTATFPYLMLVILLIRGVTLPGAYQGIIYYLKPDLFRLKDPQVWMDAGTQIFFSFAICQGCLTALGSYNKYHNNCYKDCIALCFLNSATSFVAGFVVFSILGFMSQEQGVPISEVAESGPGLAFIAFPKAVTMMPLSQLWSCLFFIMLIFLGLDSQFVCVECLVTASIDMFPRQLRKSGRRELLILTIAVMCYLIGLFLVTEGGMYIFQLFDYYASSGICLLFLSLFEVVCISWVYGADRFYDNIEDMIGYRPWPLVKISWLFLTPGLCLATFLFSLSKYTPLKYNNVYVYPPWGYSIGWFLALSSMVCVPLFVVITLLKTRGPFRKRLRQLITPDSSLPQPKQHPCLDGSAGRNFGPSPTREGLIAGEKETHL
Procedure: as §1

hGAT-1 = target: T4, hGAT-1 (Homo sapiens, UniProt P30531); assay: [3H]GABA uptake in transfected tsA201 cells; type: cell-based; conditions: hGAT-1, 37° C., 3 minutes
T4 construct: expressed in transfected cells; host or cells: tsA201 cells
T4 sequence (P30531 whole entry): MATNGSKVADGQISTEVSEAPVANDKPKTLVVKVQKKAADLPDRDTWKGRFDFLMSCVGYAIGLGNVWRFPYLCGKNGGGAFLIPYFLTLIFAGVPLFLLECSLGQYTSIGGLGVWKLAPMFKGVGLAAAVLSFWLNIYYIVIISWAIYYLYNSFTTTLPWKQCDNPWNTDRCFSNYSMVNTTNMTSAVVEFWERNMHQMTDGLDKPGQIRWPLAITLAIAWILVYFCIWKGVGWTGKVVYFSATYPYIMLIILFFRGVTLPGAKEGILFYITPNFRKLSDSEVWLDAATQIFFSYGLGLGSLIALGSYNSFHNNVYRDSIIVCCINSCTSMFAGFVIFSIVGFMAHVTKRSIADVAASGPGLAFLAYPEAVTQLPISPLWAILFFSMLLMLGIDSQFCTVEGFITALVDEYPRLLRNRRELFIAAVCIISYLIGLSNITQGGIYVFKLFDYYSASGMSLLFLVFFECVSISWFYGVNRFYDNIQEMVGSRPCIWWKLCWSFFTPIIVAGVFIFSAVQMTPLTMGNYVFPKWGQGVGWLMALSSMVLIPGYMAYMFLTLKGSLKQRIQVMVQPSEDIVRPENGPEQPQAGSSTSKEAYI
Procedure: as §1

hGAT-3 = target: T5, hGAT-3 (Homo sapiens, UniProt P48066); assay: [3H]GABA uptake in transfected tsA201 cells; type: cell-based; conditions: hGAT-3, 37° C., 3 minutes
T5 construct: expressed in transfected cells; host or cells: tsA201 cells
T5 sequence (P48066 1-632): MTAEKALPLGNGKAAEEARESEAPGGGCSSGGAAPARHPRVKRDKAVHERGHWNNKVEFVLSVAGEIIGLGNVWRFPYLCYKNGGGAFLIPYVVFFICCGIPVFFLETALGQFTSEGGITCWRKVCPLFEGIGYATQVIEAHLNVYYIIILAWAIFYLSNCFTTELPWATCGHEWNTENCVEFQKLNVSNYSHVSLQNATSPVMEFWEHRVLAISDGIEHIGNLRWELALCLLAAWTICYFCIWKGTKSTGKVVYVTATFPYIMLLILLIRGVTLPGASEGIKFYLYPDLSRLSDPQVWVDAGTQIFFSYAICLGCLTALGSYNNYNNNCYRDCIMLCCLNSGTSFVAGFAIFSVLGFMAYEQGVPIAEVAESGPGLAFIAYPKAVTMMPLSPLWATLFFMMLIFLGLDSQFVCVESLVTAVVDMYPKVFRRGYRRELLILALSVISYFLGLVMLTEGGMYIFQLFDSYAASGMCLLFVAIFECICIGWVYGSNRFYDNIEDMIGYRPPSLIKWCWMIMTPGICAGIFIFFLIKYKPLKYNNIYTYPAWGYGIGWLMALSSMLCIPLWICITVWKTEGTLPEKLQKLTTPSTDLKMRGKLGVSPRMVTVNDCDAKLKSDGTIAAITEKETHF
Procedure: as §1

[7] = rat, in vivo
Procedure: At the conclusion of dosing, rats entered a wash-out period (5-7 days) after which electroretinograms (ERGs) for scotopic (rod), mesopic (standard combined), photopic (cone), and 10 Hz and 15 Hz3 flicker ERG responses were collected for both eyes from each rat.
Quantitative histological examinations of retinas of the rats from this study were also carried out. Cone receptors were stained with a cone arrestin antibody and counterstained with a red stain for visualization and counting. Retinal sections were also stained with H&E and the ONL nuclei counts and ONL thicknesses were determined.

Effect on respiration = conditions: in vivo

UniProt Q12809, sequence (Q12809 whole entry): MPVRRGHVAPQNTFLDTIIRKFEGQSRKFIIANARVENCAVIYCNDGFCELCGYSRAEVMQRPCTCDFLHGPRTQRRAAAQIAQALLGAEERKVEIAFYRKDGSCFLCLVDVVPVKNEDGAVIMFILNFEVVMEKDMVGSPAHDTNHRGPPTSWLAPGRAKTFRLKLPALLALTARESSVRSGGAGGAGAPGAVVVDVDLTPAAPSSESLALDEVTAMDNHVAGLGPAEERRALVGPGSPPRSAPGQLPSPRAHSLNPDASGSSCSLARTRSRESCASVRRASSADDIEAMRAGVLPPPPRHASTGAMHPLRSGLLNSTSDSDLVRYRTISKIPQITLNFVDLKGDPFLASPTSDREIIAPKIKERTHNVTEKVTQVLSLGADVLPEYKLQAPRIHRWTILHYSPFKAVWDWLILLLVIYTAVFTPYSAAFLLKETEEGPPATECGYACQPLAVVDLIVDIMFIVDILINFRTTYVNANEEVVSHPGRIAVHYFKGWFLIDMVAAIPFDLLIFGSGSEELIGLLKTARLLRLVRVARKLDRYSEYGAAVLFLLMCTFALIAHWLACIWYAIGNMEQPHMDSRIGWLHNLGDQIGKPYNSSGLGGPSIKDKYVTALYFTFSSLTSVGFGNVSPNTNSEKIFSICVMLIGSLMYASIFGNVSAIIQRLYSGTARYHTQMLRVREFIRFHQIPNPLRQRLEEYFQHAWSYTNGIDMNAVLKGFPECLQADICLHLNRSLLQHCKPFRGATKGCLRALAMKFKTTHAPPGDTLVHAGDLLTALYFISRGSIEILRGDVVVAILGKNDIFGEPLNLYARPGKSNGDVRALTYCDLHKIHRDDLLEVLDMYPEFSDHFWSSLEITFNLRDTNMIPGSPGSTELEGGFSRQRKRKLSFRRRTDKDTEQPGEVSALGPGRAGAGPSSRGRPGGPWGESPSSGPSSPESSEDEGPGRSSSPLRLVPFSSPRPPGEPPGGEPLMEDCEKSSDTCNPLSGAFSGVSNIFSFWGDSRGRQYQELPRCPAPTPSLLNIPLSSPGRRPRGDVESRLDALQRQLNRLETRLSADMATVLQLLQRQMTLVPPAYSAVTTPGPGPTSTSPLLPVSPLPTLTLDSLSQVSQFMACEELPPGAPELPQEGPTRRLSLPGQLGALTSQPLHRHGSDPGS

SMILES: N[C@H]1C[C@@H](C(=O)O)CC1=C(F)F [CPP-115, (1S,3S)-3-amino-4-difluoromethylenyl-1-cyclopentanoic acid]
- binding to the hERG channel (hERG potassium channel): does not bind
- inhibition of hERG potassium current, mean (hERG potassium channel; 10 µM): 1.1%
- inhibition of hERG potassium current, mean (hERG potassium channel; 300 µM): 1.5%
- metabolism by hepatocytes [1]: not metabolized by hepatocytes
- loss of CPP-115 during incubation ([1]; 10 minutes, 1,000,000 cells/mL): 6%
- loss of CPP-115 during incubation ([1]; 240 minutes, 1,000,000 cells/mL): 16%
- increase in mean Cmax and AUC0-24 with dose [2]: generally dose proportional
- clinical findings ([3]; 10 mg/kg i.p. once daily): No dose-related clinical findings
- tolerated daily repeat dosing level ([3]; i.p. once daily for 14 days): up to 20 mg/kg
- doses with cumulative effect (weight loss, unkempt appearance, apathy, unconsciousness) ([3]; repeated i.p. dosing): ≥ 30 mg/kg
- OAT inactivation, time and concentration dependence [4]: time- and concentration-dependent
- inhibition/inactivation of OAT [4]: does inhibit/inactivate OAT
- outcome at the highest dose ([5]; 300 mg/kg single i.p.): euthanized in extremis
- dose levels with clinical findings ([5]; single i.p. administration): ≥ 75 mg/kg
- inhibition of glutamate decarboxylase (glutamate decarboxylase): does not inhibit
- inhibition or induction of cytochrome P450s (cytochrome P450s): does not inhibit or induce
- inhibition of / binding to OAT, in words [6]: next best inhibitor of OAT
- binding to GABAB (GABAB): does not bind
- IC50 (hGAT-2): > 1000 µM
- IC50 (hBGT-1): > 1000 µM
- IC50 (hGAT-1): > 1000 µM
- IC50 (hGAT-3): > 1000 µM
- ONL nuclei counts and ONL thickness vs control group [7]: no significant change
- cone receptor counts [7]: no statistically significant change
- effect on respiration (Effect on respiration): no adverse effect on respiration
